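Grown in 96-well plates, cells were treated for 48 hours with each compound at five concentrations. Insufficient inhibition: endpoint recorded as highest concentration tested. GI50 = concentration required for 50% inhibition of growth. At the TGI there is no net growth.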
tested on: NCI-H322M lung; experiment: NCI anticancer screen, dose series, 48 h

SMILES	TGI [µM]	GI50 [µM]
O=C(N/N=C\c1cccc(O)c1)c1ccncc1	> 100	
O=C(O)[C@@H]1CSCN1C(=O)[C@@H]1CCC(=S)N1	> 100	
CNc1nc2n(CCO)c(-c3ccccc3)c(-c3ccccc3)nc-2c(=O)n1	> 50	
CCOP(=O)(CN1CCNCCNCC1)OCC	> 100	
O=C(O)[C@@H]1CCCCN1Cc1cc2cc3c(cc2c2cc(OCc4ccccc4)ccc12)OCO3	> 100	2.86
O=C1O/C(=C(/Cl)c2cccc3ccccc23)c2ccccc21	> 100	
COc1cc2c3c(n(C)c(=O)c2cc1OC)-c1cc2c(cc1/C3=C\CNCCCN)OCO2	2.56	0.277
Cc1ccc(-c2cc(=O)c3cc(C)c(C)c(C(=O)O)c3o2)cc1C	> 100	
COC1(OC)CC(CO)(CNc2nc(N)nc(Cl)c2/C=N\O)C1	> 100	
C/C(=C1/CCC/C(=C(/C)c2ccccc2)C1=O)c1ccccc1	> 100	
O=C1O/C(=C(/Br)c2ccc(Cl)c(Cl)c2)c2ccccc21	> 10	
O=C1C(Cl)C(c2cccc(Cl)c2)N1c1ccc(-n2c(=S)[nH]c3ccccc3c2=O)cc1 (centres undefined)	90.3	
COC(=O)C(NC(=O)c1ccccc1)c1ccco1 (centres undefined)	> 100	
COC1=CC2(C=CC1=O)c1cc(OC)c(OC)cc1CCN2C(=O)c1ccccc1 (centres undefined)	> 100	
COc1cc2c(c(OC)c1)C1(CC(CC#N)C2)SCCS1 (centres undefined)	> 100	
COc1cccc(N2C(=O)[C@H]3CC(C)c4c([nH]c5ccccc45)[C@H]3C2=O)c1 (some centres undefined)	> 100	
Cc1ccc(N=Nc2c(C)c(C#N)c(=S)n(C3OC(CO)C(O)C(O)C3O)c2C)cc1 (centres undefined)	> 100	
CO[C@H]1C=C[C@@]23c4cc5c(cc4CO[C@]2(O)CN(C)[C@H]3C1)OCO5	> 100	
C/C(=N\Nc1ccc(Cl)cn1)c1ccccn1	> 100	0.0643
CCCCCCC(=O)C/C(=N/NC(N)=S)C(=O)NC1C2CC3CC(C2)CC1C3 (centres undefined)	> 100	
CCOC(=O)C(O)(NC(=O)c1ccc(F)cc1)C(F)(F)F (centres undefined)	> 100	
Cc1ccc2c3c(c(=O)[nH]c2c1)C1(C(C#N)=C(N)O3)c2cc(Br)ccc2-c2ccc(Br)cc21	6.53	2.5
Cn1cnc([N+](=O)[O-])c1[Se]c1nc(N)nc2c1ncn2C1OC(CO)C(O)C1O (centres undefined)	> 100	
Cc1cc(O)c(C(C)(C)C)cc1Sc1cc(C(C)(C)C)c(O)cc1C	15	3.91
CC1=N/C(=C\c2cccc([N+](=O)[O-])c2)C(=O)O1	> 100	

SMILES	TGI [µM]	GI50 [µM]
COc1ccc(O)c(/C(C)=N/NC(=S)N(C)C)c1	> 100	
O=S1(=O)N(CCNc2nccc(-c3c(-c4cccc(O)c4)nc4sccn34)n2)CCN1Cc1ccccc1	> 50	15
COC(=O)c1c(C)[nH]c(/C=C2\N=C(c3ccc[nH]3)C=C2OC)c1C	6.5	1.56
NC(CCC(=O)O)C(=O)N1CCN(c2nc(N3CCCC3)c3nc(Cl)c(NCc4ccccc4)nc3n2)CC1 (centres undefined)	30.4	
CCCCOC(=O)NC(=O)c1cn(C2CCCCC2)c(=O)[nH]c1=O	60.8	
CC(C)=CC(=O)C[C@H]1C(=O)O[C@@H]2C[C@H]3C(C)=CC(=O)[C@@H](O)[C@]3(C)[C@H]3[C@@]4(O)OC[C@]32[C@@H]1[C@@H](C)[C@H]4O	6.74	
NC(=S)Nc1ccc(S(=O)(=O)Nc2ccc(S(N)(=O)=O)cc2)cc1	> 100	
COc1cc(O)c2c(c1)OCC(Cc1ccc(O)cc1)C2=O (centres undefined)	> 100	
COc1ccc(-c2cc(=O)c3ccccc3[nH]2)c(OC)c1	> 100	
CCOC(=O)c1c(C)nc2c(c1N)/C(=C/c1ccc(OC)cc1)C(=O)N2Cc1ccc(F)cc1	2.55	1.16
CC12CCC([C@H](C(O)C3CCCCC3)C1=O)C2(C)C (some centres undefined)	> 100	
Cc1ccc(S(=O)(=O)OC(c2ccc(Cl)cc2Cl)C2OC(=O)c3ccccc32)cc1 (centres undefined)	> 100	
c1ccc(CSP234N5CCN2CCN3CCN4CC5)c(CSP234N5CCN2CCN3CCN4CC5)c1	> 100	
CC(=O)N1C/C(=C\c2ccc(N(C)C)cc2)C(=O)/C(=C/c2ccc(N(C)C)cc2)C1	> 100	
CN1C2CCC1CC(CCNC(c1ccccc1)c1ccccc1)C2 (centres undefined)	> 100	
O=c1oc2cc(O)ccc2c(O)c1C(c1ccccc1F)c1c(O)c2ccc(O)cc2oc1=O	> 100	
CCCCCN(CCCCC)CC(O)c1ccc(Cl)c2ccccc12 (centres undefined)	61.2	16.5
Clc1ccc(-c2c(C3=NCCCN3)nnn2-c2ccc(Cl)cc2)cc1	> 100	
COC(=O)c1cc(C)c(C)c2c1NC(=O)CNC2=O	> 100	
CC(C)c1cc2c(O)c(c1)Cc1cc(C(C)C)cc(c1O)Cc1cc(C(C)C)cc(c1O)Cc1cc(C(C)C)cc(c1O)C2	> 100	
CC[C@H](C)[C@H]1O[C@]2(C=C[C@@H]1C)C[C@@H]1C[C@@H](C/C=C(\C)[C@@H](O[C@H]3C[C@H](OC)[C@@H](O[C@H]4C[C@H](OC)[C@@H](NC)[C@H](C)O4)[C@H](C)O3)[C@@H](C)/C=C/C=C3\CO[C@@H]4[C@H](O)C(C)=C[C@@H](C(=O)O1)[C@]34O)O2	5.52	2.03
Nc1ncn(C2CC(O)C(CO)O2)c(=O)n1 (centres undefined)	> 375	
COc1cc2c(cc1OC)CCc1cc(OC)c(OC)cc1CC2	> 100	
CN(C)CCCN1c2ccccc2Sc2cnccc21	> 100	

Reference: PubChem BioAssay (NCI)
